Measurements published in PubChem BioAssay AID686978 (National Center for Advancing Translational Sciences (NCATS), 2013).
Hit rate of the full screen: of about 420,000 compounds, about 64,000 (15%) were called active. Inconclusive means that the source gave no clear call. Such entries were picked first, then a sample of the others. Calls come from the whole dose curve; as a rule, active = well fitted inhibition curve with a large enough effect; inconclusive = small, poorly fitted or top-dose-only effect; inactive = flat fitted curve, though single readings scatter. Potencies of inconclusive entries are left out as doubtful fits.
% is set by controls: 0 for no effect and ±100 for the full control effect; potency is the fitted concentration of half-maximal effect; tags give direction and shape of the fitted curve.

Assay: qHTS for Inhibitors of human tyrosyl-DNA phosphodiesterase 1 (TDP1): qHTS in cells in absence of CPT; note: nearly all actives have a fitted effect of over 55% in size
Conditions: DT40 Tdp1-/- hTDP1 cells, no CPT, ATP luminescence, 48 h; activity change, negative = growth inhibition: at 46.2 µM (top of the series) unless noted
Outline: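 No-CPT arm: Tdp1-/-;hTDP1 DT40 cells (400/well) plus compounds, incubated ≥48 hr at 37 °C. Readout CellTiter-Glo luminescence.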
With `O=C1N=C(N2CCCC2)S/C1=C\C=C\c1ccccc1` the “activity change, negative = growth inhibition” value was inactive: -28.1%.
In the case of `O=C1c2ccccc2C2=Nc3ccccc3SC(c3ccc(Cl)cc3)C12` (configuration not stated), the Potency was inconclusive [inhibitor, single point].
For `Cc1cc(C(=O)N2CCN(C(c3ccccc3)c3ccccc3)CC2)no1`, the Potency was inconclusive [inhibitor, single point].
In the case of `CCc1ccc(NC(=O)CSc2nc3nccnc3c(=O)n2CCc2c[nH]c3ccccc23)cc1`, the Potency was active: 4.11 µM.
In the case of `O=C(Cc1cccc(F)c1)N1CCCC(CO)(Cc2ccc(F)cc2F)C1` (configuration not stated), the Potency was inconclusive [inhibitor, partial curve, poor fit].
With `Cc1ccc(S(=O)(=O)N2CCC(C(=O)OCC(=O)NC(C)c3ccc(F)cc3)CC2)cc1C` (configuration not stated) the “activity change, negative = growth inhibition” value was inactive: 12.2%.
For `O=c1c2c3c(sc2ncn1/N=C/c1ccc(Br)o1)CCCC3`, the “activity change, negative = growth inhibition” value was inactive: -15.2%.
With `Cc1nnc(NC(=O)CSc2ncc(-c3ccccc3)[nH]2)s1` the “activity change, negative = growth inhibition” value was inactive: 7.15%.
In the case of `C=CCn1c(C)cc(C(=O)COc2nncc3ccccc23)c1C`, the Potency was active: 7.31 µM.
In the case of `CCCn1ccnc1SCC(=O)Nc1c(C)n(C)n(-c2ccccc2)c1=O`, the “activity change, negative = growth inhibition” value was inactive: -21.4%.
For `Cn1c(=O)cc(OCCCC(=O)N2CCCCC2)c2ccccc21`, the Potency was inconclusive [inhibitor, single point].
For `O=C1c2ccccc2NC(c2ccc(F)cc2)N1Cc1ccccc1` (configuration not stated), the Potency was inconclusive [inhibitor, single point].
In the case of `COc1ccc(Cc2nnc(NC(=O)c3cccc([N+](=O)[O-])c3)s2)cc1`, the Potency was inconclusive [inhibitor, partial curve, poor fit].
With `Cc1cc(-c2nnc(CCC(=O)NCc3ccc(F)c(F)c3)o2)no1` the “activity change, negative = growth inhibition” value was inactive: 7.59%.
For `COc1ccc(CN(C)CC(=O)NC(=O)NCc2ccccc2)c(OC)c1`, the Potency was inconclusive [inhibitor, single point].
For `O=C1/C(=C/c2ccc(O)cc2)SC(=S)N1Cc1cccnc1`, the “activity change, negative = growth inhibition” value was inactive: -16.8%.
In the case of `O=C(COC(=O)Cc1ccccc1[N+](=O)[O-])NCc1ccccc1Cl`, the “activity change, negative = growth inhibition” value was inactive: 12%.
For `CN(C)CCCN(C(=O)c1ccco1)c1nc2ccc(F)cc2s1`, the Potency was inconclusive [inhibitor, single point].
With `CCc1ccc2oc(-c3cccc(NC(=O)c4ccc(N5CCC(C)CC5)c([N+](=O)[O-])c4)c3)nc2c1` the Potency was inconclusive [inhibitor, single point].
In the case of `O=C(CCNC(=O)N1CC(=O)Nc2ccccc21)NCc1cccc(Cl)c1`, the Potency was inconclusive [inhibitor, partial curve].
For `O=C(O)c1ccccc1-c1csc(-c2ccccc2)n1`, the “activity change, negative = growth inhibition” value was inactive: -15.6%.
In the case of `COc1cc(/C=C2/C(=O)ON=C2C)cc(Cl)c1O`, the Potency was inconclusive [inhibitor, single point].
In the case of `Cc1ccccc1CNC(=O)Cn1ncn2nc(-c3cccs3)cc2c1=O`, the Potency was inconclusive [inhibitor, single point].
For `CCOc1ccc(-c2nc(CSCC(=O)N3CCN(c4cccc(OC)c4)CC3)c(C)o2)cc1`, the Potency was inconclusive [inhibitor, single point].
In the case of `S=C1SC2(CCCCCC2)NC2=C1CCCCC2`, the Potency was active: 13 µM.
For `O=C(CC1Sc2ccccc2NC1=O)NNc1cccc(Cl)c1Cl` (configuration not stated), the Potency was inconclusive [inhibitor, single point].
For `Cc1cccc(N2CCN(C(=O)Cn3nc(Cc4ccncc4)c4ccccc4c3=O)CC2)c1C`, the Potency was inconclusive [inhibitor, single point].
With `C[N+]1(CC(=O)c2ccc(I)cc2)CCCc2ccccc21` (configuration not stated) the Potency was active: 7.08 µM.
In the case of `N/C(=N\OC(=O)CCCOc1ccccc1)c1ccc([N+](=O)[O-])cc1`, the Potency was inconclusive [inhibitor, single point].
For `CS(=O)(=O)Nc1ccc(C2=NN(C(=O)c3ccco3)C(c3ccccc3F)C2)cc1` (configuration not stated), the Potency was active: 18.4 µM.
With `COc1ccc(Br)cc1CN(C)CC(=O)Nc1cc(Cl)ccc1Cl` the Potency was inconclusive [inhibitor, partial curve].
With `O=C1CC(SC(=Nc2ccccc2)Nc2ccccc2)C(=O)N1c1ccc(Cl)c(Cl)c1` (configuration not stated) the Potency was active: 18.4 µM.
With `CC(C)(O)C#Cc1ccc(CN2CCc3nnc(CNC(=O)c4cccc(F)c4)n3CC2)cc1` the “activity change, negative = growth inhibition” value was inactive: -27.4%.
With `COc1cccc(-c2nc(CS(=O)(=O)CC(=O)NC3CCC(C)CC3)c(C)o2)c1` (configuration not stated) the Potency was inconclusive [inhibitor, partial curve].
For `CCCCCCn1c(=O)c(F)cn(Cc2ccc(OC)c([N+](=O)[O-])c2)c1=O`, the Potency was inconclusive [inhibitor, single point].
With `CN(C)c1cc(O)c(C(=S)Nc2ccccc2)c(N(C)C)c1` the Potency was inconclusive [inhibitor, single point].
For `C[n+]1ccc(/C=C/c2ccccc2O)c2ccccc21`, the Potency was inconclusive [inhibitor, single point].
In the case of `COCCNC(=O)/C(C#N)=C/c1c(N2CCCCCC2)nc2c(C)cccn2c1=O`, the Potency was active: 14.6 µM.
With `S=C(NCCc1ccc(Cl)cc1)NC1CCCCC1` the Potency was inconclusive [inhibitor, single point].
In the case of `Cc1cc(C)c(NC(=O)CNC(=O)COC(=O)CN2C(=O)NC3(CCCC3)C2=O)c(C)c1`, the “activity change, negative = growth inhibition” value was inactive: -11.7%.
With `COc1ccccc1N1CCN(Cc2cc(=O)c(OCC(=O)Nc3ccccc3)co2)CC1` the Potency was inconclusive [inhibitor, partial curve].
In the case of `CN(c1ccccc1)S(=O)(=O)c1ccc(C(=O)NCCc2ccc(F)cc2)cc1`, the “activity change, negative = growth inhibition” value was inactive: -23.4%.
With `Cc1cccc(CSc2cn(CC(=O)N3CCCC3)c3ccccc23)c1` the Potency was active: 16.4 µM.
In the case of `O=C(Nc1c(-c2ccc3c(c2)OCO3)[nH][nH]c1=O)c1ccccc1`, the Potency was inconclusive [inhibitor, single point].
In the case of `O=C(CNC(=O)C1CCCCC1)OCC(=O)c1ccccc1`, the “activity change, negative = growth inhibition” value was inactive: -21.5%.
For `Cc1cc(N2CCCCC2)nc2ccc(NC(=O)/C=C/c3ccccc3OC(C)C)cc12`, the Potency was active: 10.3 µM.
With `CCOc1ccc(Nc2nc(Cc3nnc(SCC(=O)NC4CCCCC4)n3C)cs2)cc1` the “activity change, negative = growth inhibition” value was inactive: -8.93%.
